# The other results are listed elsewhere or left out.
# B1: GSL-I-B4 (Griffonia simplicifolia) (protein)
# chain: NFWSDVEDSIIFQGDANTTAGTLQLCKTNQYGTPLQWSAGRALYSDPVQLWDNKTESVASFYTEFTFFLKITGNGPADGLAFFLAPPDSDVKDAGEYLGLFNKSTATQPSKNQVVAVEFDTWTNPNFPEPSYRHIGINVNSIVSVATKRWEDSDIFSGKIATARISYDGSAEILTVVLSYPDGSDYILSHSVDMRQNLPESVRVGISASTGNNQFLTVYILSWRFSSNLQSTSVKAAMEPEITRTVV
# Key:
# Assay in all cases: glycan array binding signal (z-score within array); higher = stronger binding
# Conditions in all cases: glycan notation: IUPAC condensed, linker removed
# [1] = target: GalNAc(b1-4)GlcNAc(b1-2)Man
# Summary of the method: (§1)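 The binding signal is a Z-score computed within each array and averaged over linkers. Arrays of the same protein sequence at different concentrations or buffers were also averaged together. Data originate from 3228 arrays in the Consortium for Functional Glycomics database, kept only where the protein sequence was available.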
# [2] = target: GalNAc(b1-4)GlcNAc(b1-2)Man(a1-3)[GalNAc(b1-4)GlcNAc(b1-2)Man(a1-6)]Man(b1-4)GlcNAc(b1-4)GlcNAc
# Summary of the method: as §1
# [3] = target: GalNAc(b1-4)GlcNAc(b1-3)GalNAc(b1-4)GlcNAc
# Summary of the method: as §1
# GalNAc(b1-4)GlcNAc6S = target: GalNAc(b1-4)GlcNAc6S
# Summary of the method: as §1
# GalNAc(b1-6)GalNAc = target: GalNAc(b1-6)GalNAc
# Summary of the method: as §1
# GalNAc3S(b1-4)GlcNAc = target: GalNAc3S(b1-4)GlcNAc
# Summary of the method: as §1
# GalNAc3S(b1-4)GlcNAc3S = target: GalNAc3S(b1-4)GlcNAc3S
# Summary of the method: as §1
# [4] = target: GalNAc3S(b1-4)[Fuc(a1-3)]GlcNAc
# Summary of the method: as §1
# GalNAc4S6S(b1-4)GlcNAc = target: GalNAc4S6S(b1-4)GlcNAc
# Summary of the method: as §1
# GalNAc6S(b1-4)GlcNAc = target: GalNAc6S(b1-4)GlcNAc
# Summary of the method: as §1
# Glc(a1-4)Glc = target: Glc(a1-4)Glc
# Summary of the method: as §1
# [5] = target: Glc(a1-4)Glc(a1-4)Glc(a1-4)Glc
# Summary of the method: as §1
# Glc(a1-6)Glc(a1-6)Glc = target: Glc(a1-6)Glc(a1-6)Glc
# Summary of the method: as §1
# [6] = target: Glc(a1-6)Glc(a1-6)Glc(a1-6)Glc
# Summary of the method: as §1
# Glc(b1-4)Glc = target: Glc(b1-4)Glc
# Summary of the method: as §1
# Glc(b1-6)Glc = target: Glc(b1-6)Glc
# Summary of the method: as §1
# GlcA(b1-3)Gal = target: GlcA(b1-3)Gal
# Summary of the method: as §1
# GlcA(b1-3)GlcNAc = target: GlcA(b1-3)GlcNAc
# Summary of the method: as §1
# GlcA(b1-6)Gal = target: GlcA(b1-6)Gal
# Summary of the method: as §1
# [7] = target: GlcA3S(b1-3)Gal(b1-4)GlcNAc(b1-2)Man
# Summary of the method: as §1
# [8] = target: GlcA3S(b1-3)Gal(b1-4)GlcNAc(b1-3)Gal(b1-4)Glc
# Summary of the method: as §1
# [9] = target: GlcNAc(a1-3)Gal(b1-4)GlcNAc
# Summary of the method: as §1
# [10] = target: GlcNAc(a1-4)Gal(b1-3)GlcNAc
# Summary of the method: as §1
# [11] = target: GlcNAc(a1-4)Gal(b1-4)GalNAc
# Summary of the method: as §1
# [12] = target: GlcNAc(a1-4)Gal(b1-4)GlcNAc
# Summary of the method: as §1
# [13] = target: GlcNAc(a1-4)Gal(b1-4)GlcNAc(b1-3)Gal(b1-4)Glc
# Summary of the method: as §1
# [14] = target: GlcNAc(a1-4)Gal(b1-4)GlcNAc(b1-3)Gal(b1-4)GlcNAc
# Summary of the method: as §1
# [15] = target: GlcNAc(a1-4)Gal(b1-4)GlcNAc(b1-3)Gal(b1-4)GlcNAc(b1-3)Gal(b1-4)GlcNAc
# Summary of the method: as §1
# [16] = target: GlcNAc(a1-4)Gal(b1-4)GlcNAc(b1-3)Gal(b1-4)[Fuc(a1-3)]GlcNAc(b1-3)Gal(b1-4)[Fuc(a1-3)]GlcNAc
# Summary of the method: as §1
# [17] = target: GlcNAc(a1-6)Gal(b1-4)GlcNAc
# Summary of the method: as §1
# [18] = target: GlcNAc(b1-2)Gal(b1-3)GalNAc
# Summary of the method: as §1
# [19] = target: GlcNAc(b1-2)Man(a1-3)[GlcNAc(b1-2)Man(a1-6)]Man(b1-4)GlcNAc(b1-4)GlcNAc
# Summary of the method: as §1
# [20] = target: GlcNAc(b1-2)Man(a1-3)[GlcNAc(b1-2)Man(a1-6)]Man(b1-4)GlcNAc(b1-4)[Fuc(a1-6)]GlcNAc
# Summary of the method: as §1
# [21] = target: GlcNAc(b1-2)Man(a1-3)[GlcNAc(b1-4)][GlcNAc(b1-2)Man(a1-6)]Man(b1-4)GlcNAc(b1-4)GlcNAc
# Summary of the method: as §1
# [22] = target: GlcNAc(b1-2)Man(a1-3)[GlcNAc(b1-4)][GlcNAc(b1-2)Man(a1-6)]Man(b1-4)GlcNAc(b1-4)[Fuc(a1-6)]GlcNAc
# Summary of the method: as §1
# [23] = target: GlcNAc(b1-2)[GlcNAc(b1-4)]Man(a1-3)[GlcNAc(b1-2)Man(a1-6)]Man(b1-4)GlcNAc(b1-4)GlcNAc
# Summary of the method: as §1
# [24] = target: GlcNAc(b1-2)[GlcNAc(b1-4)]Man(a1-3)[GlcNAc(b1-4)][GlcNAc(b1-2)Man(a1-6)]Man(b1-4)GlcNAc(b1-4)GlcNAc
# Summary of the method: as §1
# [25] = target: GlcNAc(b1-2)[GlcNAc(b1-4)]Man(a1-3)[GlcNAc(b1-4)][GlcNAc(b1-2)[GlcNAc(b1-6)]Man(a1-6)]Man(b1-4)GlcNAc(b1-4)GlcNAc
# Summary of the method: as §1
# [26] = target: GlcNAc(b1-2)[GlcNAc(b1-4)]Man(a1-3)[GlcNAc(b1-4)][GlcNAc(b1-2)[GlcNAc(b1-6)]Man(a1-6)]Man(b1-4)GlcNAc(b1-4)[Fuc(a1-6)]GlcNAc
# Summary of the method: as §1
# [27] = target: GlcNAc(b1-2)[GlcNAc(b1-6)]Man(a1-6)[GlcNAc(b1-2)Man(a1-3)]Man(b1-4)GlcNAc(b1-4)GlcNAc
# Summary of the method: as §1
# [28] = target: GlcNAc(b1-2)[GlcNAc(b1-6)]Man(a1-6)[GlcNAc(b1-2)Man(a1-3)]Man(b1-4)GlcNAc(b1-4)[Fuc(a1-6)]GlcNAc
# Summary of the method: as §1
# [29] = target: GlcNAc(b1-2)[GlcNAc(b1-6)]Man(a1-6)[GlcNAc(b1-4)][GlcNAc(b1-2)Man(a1-3)]Man(b1-4)GlcNAc(b1-4)GlcNAc
# Summary of the method: as §1
# GlcNAc(b1-3)Fuc = target: GlcNAc(b1-3)Fuc
# Summary of the method: as §1
# GlcNAc(b1-3)Gal = target: GlcNAc(b1-3)Gal
# Summary of the method: as §1
# [30] = target: GlcNAc(b1-3)Gal(b1-3)GalNAc
# Summary of the method: as §1
binder,measurement,setting,value
B1,glycan array binding signal (z-score),[1],-0.163
same,glycan array binding signal (z-score),[2],0.223
same,glycan array binding signal (z-score),[3],-0.193
same,glycan array binding signal (z-score),GalNAc(b1-4)GlcNAc6S,-0.146
same,glycan array binding signal (z-score),GalNAc(b1-6)GalNAc,-0.216
same,glycan array binding signal (z-score),GalNAc3S(b1-4)GlcNAc,-0.159
same,glycan array binding signal (z-score),GalNAc3S(b1-4)GlcNAc3S,-0.261
same,glycan array binding signal (z-score),[4],-0.182
same,glycan array binding signal (z-score),GalNAc4S6S(b1-4)GlcNAc,-0.233
same,glycan array binding signal (z-score),GalNAc6S(b1-4)GlcNAc,-0.245
same,glycan array binding signal (z-score),Glc(a1-4)Glc,-0.173
same,glycan array binding signal (z-score),[5],-0.156
same,glycan array binding signal (z-score),Glc(a1-6)Glc(a1-6)Glc,-0.122
same,glycan array binding signal (z-score),[6],-0.126
same,glycan array binding signal (z-score),Glc(b1-4)Glc,-0.097
same,glycan array binding signal (z-score),Glc(b1-6)Glc,-0.09
same,glycan array binding signal (z-score),GlcA(b1-3)Gal,-0.154
same,glycan array binding signal (z-score),GlcA(b1-3)GlcNAc,-0.167
same,glycan array binding signal (z-score),GlcA(b1-6)Gal,-0.127
same,glycan array binding signal (z-score),[7],-0.216
same,glycan array binding signal (z-score),[8],-0.14
same,glycan array binding signal (z-score),[9],-0.06
same,glycan array binding signal (z-score),[10],-0.171
same,glycan array binding signal (z-score),[11],-0.121
same,glycan array binding signal (z-score),[12],-0.12
same,glycan array binding signal (z-score),[13],-0.074
same,glycan array binding signal (z-score),[14],-0.024
same,glycan array binding signal (z-score),[15],0.024
same,glycan array binding signal (z-score),[16],-0.12
same,glycan array binding signal (z-score),[17],0.034
same,glycan array binding signal (z-score),[18],-0.186
same,glycan array binding signal (z-score),[19],-0.199
same,glycan array binding signal (z-score),[20],-0.143
same,glycan array binding signal (z-score),[21],-0.176
same,glycan array binding signal (z-score),[22],-0.196
same,glycan array binding signal (z-score),[23],-0.028
same,glycan array binding signal (z-score),[24],-0.108
same,glycan array binding signal (z-score),[25],-0.089
same,glycan array binding signal (z-score),[26],-0.062
same,glycan array binding signal (z-score),[27],-0.168
same,glycan array binding signal (z-score),[28],-0.126
same,glycan array binding signal (z-score),[29],-0.218
same,glycan array binding signal (z-score),GlcNAc(b1-3)Fuc,-0.142
same,glycan array binding signal (z-score),GlcNAc(b1-3)Gal,-0.158
same,glycan array binding signal (z-score),[30],-0.143
